Experimental data: PubChem BioAssay AID1030 (National Center for Advancing Translational Sciences (NCATS), 2008)
Where “and” joins values, the source holds several entries; their conditions need not be identical. Equal entries are not always repeated. Screen size: about 220,000 compounds; about 16,000 (7.3%) were called active. This list was built around the results that the source calls inconclusive (neither active nor inactive); the mix of calls is not that of the screen. Calls follow the shape of the dose curve; as a rule, active = well fitted inhibition curve with a large enough effect (not every such curve was filed as active); inconclusive = small, poorly fitted or top-dose-only effect, or another doubt; inactive = no such curve, though single readings can be large or run the other way. A potency beside an inconclusive call is a rough fit, not a confirmed value.

The compounds below were run against Aldehyde dehydrogenase 1A1 (Homo sapiens) (UniProt P00352) (assay: qHTS Assay for Inhibitors of Aldehyde Dehydrogenase 1 (ALDH1A1)). Details: Purified ALDH1A1, NADH fluorescence, propionaldehyde substrate; series mostly up to 75.3 µM.
Sequence of UniProt P00352 (P00352 whole entry, looked up): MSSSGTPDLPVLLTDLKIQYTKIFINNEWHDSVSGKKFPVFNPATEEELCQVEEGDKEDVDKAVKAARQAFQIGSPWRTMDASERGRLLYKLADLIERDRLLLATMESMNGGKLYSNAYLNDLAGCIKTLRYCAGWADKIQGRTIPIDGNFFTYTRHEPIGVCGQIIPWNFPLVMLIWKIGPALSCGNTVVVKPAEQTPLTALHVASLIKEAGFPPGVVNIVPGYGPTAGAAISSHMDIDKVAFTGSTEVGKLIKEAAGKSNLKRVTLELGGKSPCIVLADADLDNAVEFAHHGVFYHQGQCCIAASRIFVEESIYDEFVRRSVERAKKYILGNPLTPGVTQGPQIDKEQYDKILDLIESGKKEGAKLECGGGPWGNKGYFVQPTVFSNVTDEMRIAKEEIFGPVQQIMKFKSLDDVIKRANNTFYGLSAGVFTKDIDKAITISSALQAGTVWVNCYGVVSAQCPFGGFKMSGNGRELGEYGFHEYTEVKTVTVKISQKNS
Potency is read from the fitted curve at half-maximal effect; tags tell the direction and shape of the fitted curve.

| Compound | Potency |
| --- | --- |
| CC1=Nc2ccc3ccccc3c2C1(C)C | inactive |
| CCOC(=O)c1[nH]nc(N)c1NC(=O)c1ccc(Cl)cc1Cl | inactive |
| CCOC(=O)CSc1ncc(OC)c(Sc2ccc(OC)cc2)n1 | inconclusive: 25.1 µM [inhibitor, partial curve] |
| CCCc1nc2oc3c(N4CCNCC4)ncnc3c2c2c1CCCC2 | inconclusive: 17.8 µM [inhibitor, partial curve] |
| O=C(O)CC(c1cccc2ccccc12)N1Cc2ccccc2C1=O (centres undefined) | inactive |
| CNC(=S)NCCC(c1ccccc1)c1ccccc1 | inactive |
| Nc1nnc(SCC(=O)c2cccc([N+](=O)[O-])c2)s1 | inconclusive: 35.5 µM [inhibitor, single point] |
| CCOC(=O)c1c(N)sc2c1CCS(=O)(=O)C2 | active: 28.2 µM |
| CCOC(=O)c1cc(C#N)c(N2CCN(c3ccccn3)CC2)nc1-c1ccccc1 | inconclusive: 28.2 µM [inhibitor, partial curve] |
| COc1cc(OC)c(-c2nnc(-c3ccc(OC)c(OC)c3OC)o2)cc1OC | inconclusive: 35.5 µM [inhibitor, single point] |
| CCOc1ccc(Nc2nc(Cc3nnc(SCC(=O)NC4CCCCC4)n3C)cs2)cc1 | inconclusive: 39.8 µM [inhibitor, single point] |
| Clc1cccc(/C=N/Nc2nc(Cl)nc3ccccc23)c1 | inconclusive: 35.5 µM [inhibitor, single point] |
| O=C1C=C(N2CCN(C3=CC(=O)CCC3)CC2)CCC1 | inconclusive: 39.8 µM [inhibitor, single point] |
| CCOC(=O)c1oc2cc(O)c(CC)cc2c(=O)c1-c1ccc2c(c1)OCCO2 | inconclusive: 35.5 µM [inhibitor, single point] |
| COc1cccc([C@@H]2Oc3ccc(OC)cc3C(=O)[C@H]2OC(=O)NCc2ccco2)c1 | inactive |
| Cc1ccc2nc(NC(=O)C3CCCN3C(=O)OC(C)(C)C)sc2c1 (centres undefined) | inactive |
| O=C(Cn1cnc2c(nnn2-c2ccc(F)cc2)c1=O)N1CCCC1 | inconclusive: 39.8 µM [inhibitor, single point] |
| CCOc1ccc(-c2nc(CSCC(=O)N3CCN(c4cccc(OC)c4)CC3)c(C)o2)cc1 | inconclusive: 28.2 µM [inhibitor, single point] |
| CCOC(=O)N(NC(=O)C(O)(CC(C)C)CC(C)C)c1ccccc1 | inactive |
| O=C1CC(SC(=Nc2ccccc2)Nc2ccccc2)C(=O)N1c1ccc(Cl)c(Cl)c1 (centres undefined) | inconclusive: 39.8 µM [inhibitor, single point] |
| O=C(CNC(=S)N(Cc1ccccc1Cl)C1CCCC1)NCCCN1CCOCC1 | inconclusive: 44.7 µM [inhibitor, single point] |
| CC(=O)Nc1ccc(NC(=O)CCNS(=O)(=O)c2cccc3nsnc23)cc1 | active: 12.6 µM |

| Compound | Potency |
| --- | --- |
| CS(=O)(=O)Nc1ccc(C2=NN(C(=O)c3ccco3)C(c3ccccc3F)C2)cc1 (centres undefined) | inconclusive: 25.1 µM [inhibitor, partial curve] |
| Cc1nc2c(-c3ccccc3)c(C)nn2c(C)c1CCC(=O)N1CCOCC1 | inconclusive: 31.6 µM [inhibitor, single point] |
| CCCCCCn1c(=O)c(F)cn(Cc2ccc(OC)c([N+](=O)[O-])c2)c1=O | inconclusive: 28.2 µM [inhibitor, single point] |
| CCOc1ccc2c(c1)C(c1ccc(C)o1)=NNC(c1ccncc1)=N2 | inconclusive: 39.8 µM [inhibitor, single point] |
| CN(C(=O)c1c(Br)cnn1C)C12CC3CC(CC(C3)C1)C2 | inactive |
| CCNC(=O)C1CC(=O)N(Cc2ccc3c(c2)OCO3)C(=Nc2ccc(OCC)cc2)S1 (centres undefined) | inconclusive: 39.8 µM [inhibitor, single point] |
| Cc1oc2nc(SCCCC(=O)NCCCO)nc(N)c2c1C | inconclusive: 39.8 µM [inhibitor, single point] |
| CCc1c(C)sc(NC(=O)OC)c1C(=O)N1CCCCC1 | inconclusive: 39.8 µM [inhibitor, single point] |
| C=CCn1c(COc2ccccc2)nnc1SCC(=O)C(C)(C)C | inconclusive: 39.8 µM [inhibitor, single point] |
| O=C(NC1CC2CCCC(C1)N2Cc1ccccc1)C1CCCCC1 (centres undefined) | inactive |
| C=CCn1c(C)cc(C(=O)COc2nncc3ccccc23)c1C | inconclusive: 28.2 µM [inhibitor, single point] |
| CC(NC(=O)CSc1nc(=O)cc(N)n1-c1ccccc1)c1ccccc1 (centres undefined) | inactive |
| CC1CCCN(Cc2c(O)ccc3c(=O)c(-c4nc5ccccc5s4)c(N)oc23)C1 (centres undefined) | inconclusive: 25.1 µM [inhibitor, partial curve] |
| O=C(/C=C/c1ccc2c(c1)OCO2)N1CCN(c2ccccc2F)CC1 | inconclusive: 39.8 µM [inhibitor, single point] |
| CN(C)CCCN(C(=O)c1ccco1)c1nc2ccc(F)cc2s1 | inconclusive: 39.8 µM [inhibitor, single point] |
| COc1ccc(C(C)=O)cc1COC(=O)c1ccc(S(=O)(=O)N2CCOCC2)cc1 | inconclusive: 39.8 µM [inhibitor, single point] |
| O=C(COC(=O)Cc1ccccc1[N+](=O)[O-])NCc1ccccc1Cl | inconclusive: 39.8 µM [inhibitor, single point] |
| O=C1/C(=C/c2ccc(O)cc2)SC(=S)N1Cc1cccnc1 | inconclusive: 39.8 µM [inhibitor, single point] |
| OCc1ccc(-c2nn(Cc3ccccc3)c3ccccc23)o1 | inconclusive: 25.1 µM [inhibitor, partial curve] and inconclusive: 28.2 µM [inhibitor, partial curve] |
| COc1ccc(Cc2c(O)nc(SCC(=O)NC(C)(C)C)[nH]c2=O)cc1 | inconclusive: 25.1 µM [inhibitor, partial curve] |
| CC(C)c1ccc(NC(=O)c2csnn2)cc1 | active: 17.8 µM |
| O=C(c1ccccc1Cl)N1CCC(c2nc3c(nnn3Cc3ccco3)c(=O)[nH]2)CC1 | active: 28.2 µM |
